The results in this text go back to PubChem BioAssay AID488969 (Vanderbilt High Throughput Screening Facility, 2010).

Over roughly 110,000 compounds, “z-score” has its median near -0.1; the highest 2% begin near 2. This is one part of the list. Active and inactive are the calls of the source.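 How the source made its calls: active means z-score in the third read window above 3 or below -3; inactive means the rest.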

In this experiment the target is Metabotropic glutamate receptor 8 (Rattus norvegicus) (UniProt P70579). The experiment in a line: mGluR8 Gi/Go-coupled signaling modulation – cell-based, rat, thallium flux, HTS, primary screen (AID 488969). The settings on record: HEK293 rat mGluR8, GIRK (G protein-gated inwardly rectifying potassium channel) thallium flux, FluoZin2; at 10 µM; stronger effect = higher value; submaximal glutamate (EC20) added with thallium.
Sequence of UniProt P70579 (P70579 whole entry, looked up): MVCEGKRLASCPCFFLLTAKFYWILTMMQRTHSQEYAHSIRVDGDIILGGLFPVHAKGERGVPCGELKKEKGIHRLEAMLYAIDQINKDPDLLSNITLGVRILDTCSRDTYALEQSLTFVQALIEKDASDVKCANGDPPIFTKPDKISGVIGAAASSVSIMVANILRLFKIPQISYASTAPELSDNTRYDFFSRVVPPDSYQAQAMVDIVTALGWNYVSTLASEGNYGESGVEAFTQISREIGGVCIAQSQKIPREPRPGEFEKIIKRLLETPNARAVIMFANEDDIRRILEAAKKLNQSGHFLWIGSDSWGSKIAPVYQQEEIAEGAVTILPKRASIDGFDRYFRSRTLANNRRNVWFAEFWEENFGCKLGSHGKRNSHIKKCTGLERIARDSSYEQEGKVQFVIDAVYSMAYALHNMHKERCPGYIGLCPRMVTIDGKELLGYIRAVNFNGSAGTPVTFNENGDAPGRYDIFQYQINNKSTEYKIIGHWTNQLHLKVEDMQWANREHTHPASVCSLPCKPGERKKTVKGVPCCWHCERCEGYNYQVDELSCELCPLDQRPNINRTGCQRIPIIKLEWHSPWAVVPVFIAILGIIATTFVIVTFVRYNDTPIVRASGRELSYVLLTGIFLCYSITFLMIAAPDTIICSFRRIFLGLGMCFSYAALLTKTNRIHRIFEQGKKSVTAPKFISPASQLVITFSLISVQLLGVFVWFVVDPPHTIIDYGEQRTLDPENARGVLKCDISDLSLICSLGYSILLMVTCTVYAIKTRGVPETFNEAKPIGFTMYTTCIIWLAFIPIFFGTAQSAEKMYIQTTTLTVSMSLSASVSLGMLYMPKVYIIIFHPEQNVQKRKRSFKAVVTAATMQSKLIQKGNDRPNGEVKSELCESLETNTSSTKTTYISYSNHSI
`C=CCNC(=S)NNC(=O)c1ccc(Br)cc1` showed a z-score of 1.01.

As for `COc1ccc(CCNC(=O)C2CCN(C(=O)NC3CCCCC3)CC2)cc1`, the z-score is -0.187.

`Cc1ccc(CNc2ncccc2-c2nc3cc(Cl)ccc3o2)cc1` came in with a z-score of 0.176.

`CCOc1ccc(C(=O)NCC(=O)OCC(=O)N2CCC(C)CC2)cc1` displayed a z-score of 0.0156.

`NC(=O)Cn1nnc(-c2ccccc2NC(=O)c2cnccn2)n1`: the z-score came to 0.313.

Molecule `CCCCCn1c(CNC(=O)CCC)nc2ccccc21` yielded a z-score of -0.492.

For `O=c1oc(-c2ccco2)nc2ccccc12`, the z-score is -0.973.

In turn, `O=C(c1ccc(S(=O)(=O)N2CCOCC2)cc1)N1CCN(c2cccc(Cl)c2)CC1` gave a z-score of -0.306.

`CCSc1nnc(-c2cccc(S(=O)(=O)N(C)C)c2)n1-c1cc(OC)ccc1OC` showed a z-score of -0.248.

`C#CC[N+]1(CC#Cc2ccc(C)cc2)CCCCC1` showed a z-score of -0.00534.

In turn, `Cc1[nH]c2ccccc2c1/C=N/Nc1ccc([N+](=O)[O-])cc1` returned a z-score of -0.0633.

Molecule `CCOC(=O)c1c(NC(=O)CSc2n[nH]c(CNc3ccccc3)n2)sc(C)c1C` returned a z-score of 0.246.

With `O=C(c1cccc(N2CCCC2=O)c1)N1CCOCC1`, the z-score was found to be 0.00471.

In turn, `C=CCNc1nc(N2CCOCC2)nc(N2CCOCC2)n1` returned a z-score of 0.263.

Consider `COc1ccc(N(CC(=O)N2CCc3ccccc3C2)S(=O)(=O)c2c(C)[nH]c(=O)[nH]c2=O)cc1`, for which the z-score came out at 0.0182.

Consider `CCCC(=O)Nc1ccccc1Sc1ncnc2scc(-c3ccccc3)c12`, for which the z-score was -1.02.

The molecule `O=C(NC1CCS(=O)(=O)C1)c1cccc(S(=O)(=O)N2CCOCC2)c1` (centres undefined) had a z-score of 0.0358.

`COc1ccc(/C=C2\CN(Cc3ccccc3)C/C(=C\c3ccc(OC)cc3OC)C2=O)c(OC)c1` gave a z-score of -0.152.

Consider `Cc1ccc(-n2[nH]c(C)c(C=Nc3ccc(S(=O)(=O)Nc4nccs4)cc3)c2=O)cc1C`, for which the z-score came out at 0.00623.

`CC(C)CCNC(=O)CN(Cc1cccs1)C(=O)CCC(=O)Nc1nccs1` registered a z-score of 0.0871.

For the molecule `CCOC(=O)C1CCCN(C(=O)c2cnn3c(C(F)(F)F)cc(-c4ccccc4)nc23)C1` (centres undefined), the z-score was -2.11.

Consider `N/C(CSc1nc(-c2ccccc2)c(-c2ccccc2)o1)=N\O`, for which the z-score was -0.125.

On to `Cc1cc(-c2ccccc2)n2nc(C)c(C#N)c2n1`, for which the z-score was -0.193.

On to `CCc1cc2c(=O)n(-c3ccccc3)cnc2s1`, for which the z-score is 0.606.

`CC(C(=O)O)N1C(=O)/C(=C/c2cccn2C)SC1=S` (centres undefined) had a z-score of -0.0659.

On to `CCC(C)(C)NC(=O)C(c1ccco1)N(C(=O)Cn1nnc2ccccc21)c1ccc2c(c1)OCO2` (centres undefined), for which the z-score is -0.197.

As for `O=C(Nc1ccccc1-c1nc2ccccc2s1)C1=COCCO1`, the z-score is -0.321.

For `CS(=O)(=O)N(CC(=O)N1CCC(C(N)=O)CC1)c1ccc(Cl)c(C(F)(F)F)c1`, the z-score is -0.126.

For the molecule `O=C(/C=C/c1ccccc1)NC1CC2CCC1C2` (centres undefined), the z-score was -0.0435.

In turn, `COc1ccc(C/C(N)=N/n2cnnc2)cc1Cl` registered a z-score of -0.163.

For the molecule `Cc1ccc(N/N=C/c2ccc3c(c2)OCCO3)cc1Cl`, the z-score was 0.0954.

Consider `O=C(c1ccc(S(=O)(=O)c2ccccc2Cl)c([N+](=O)[O-])c1)N1CCCCCC1`, for which the z-score turned out to be 1.74.

As for `COc1ccccc1-c1nc2ccccc2nc1-c1ccccc1`, the z-score is 1.12.

The molecule `COc1ccc(CCC(=O)Nc2cccc(Cl)c2)cc1` registered a z-score of 0.0236.

`Cc1cccn2c(=O)c(C=NCCO)c(NCc3ccco3)nc12`: the z-score is -0.648.

Regarding `N#Cc1c(N)nc2c(c1-c1ccc(Br)s1)CCCC2`, the z-score is -0.0949.

As to `O=c1c[n+]([O-])c2ccccc2n1OCc1c(F)cccc1F`, the z-score is -0.298.

Consider `Cc1ccc(S(=O)(=O)N2CCN(S(=O)(=O)c3ccc(C)cc3)C2c2ccccc2)cc1`, for which the z-score is -0.0627.

Molecule `O=C(CCc1nc2ccccc2[nH]1)Nc1ccc2c(c1)OCO2` showed a z-score of 0.16.

As to `CCNCCC(=O)N1c2ccccc2Sc2ccc(NC(=O)OCC)cc21`, the z-score came out at 0.729.

`CC(C)C(NC(=O)C1CCCCC1)C(=O)NC1=NCCS1` (centres undefined) displayed a z-score of -0.245.

The molecule `COc1ccc(CCN2C(=O)C(Oc3ccccc3C)C2c2ccc3c(c2)OCO3)cc1` (centres undefined) gave a z-score of -0.223.

`CCCCCC1CCC(C(=O)NNC(=S)NCC)CC1` (centres undefined) returned a z-score of 0.796.

In turn, `COc1ccc(-c2cc(C(=O)O)c(C)o2)cc1OC` yielded a z-score of 0.776.

Molecule `Cc1cc(C(=O)OCC(=O)Nc2cc(S(=O)(=O)N3CCOCC3)ccc2Cl)c(C)o1` gave a z-score of -0.838.

In turn, `O=c1[nH]cnc2c1cnn2Cc1ccccc1` had a z-score of 0.446.

`CC(=O)Nc1ccc(-c2nnc(SCc3c(C)cc(C)cc3C)n2C)cc1` yielded a z-score of -0.514.

Molecule `Cc1ccc(OCC(=O)Nc2ccc(Cl)cc2)c(-n2nc3ccccc3n2)c1` showed a z-score of -0.38.

In turn, `CC(=O)Oc1cc2c(cc1Cl)C1(CC(c3ccccc3Cl)O2)CC(C)(C)NC(=S)N1` (centres undefined) yielded a z-score of 0.197.

For `COc1cccc(-c2nnc(Nc3nc4c(F)cccc4s3)o2)c1`, the z-score was active: 17.4.

For `COc1cccc(-c2nnc(NC(=O)c3ccc(S(=O)(=O)N(CC(C)C)CC(C)C)cc3)o2)c1`, the z-score was -0.14.

As to `Cc1cccc(OCCCC(=O)Nc2ccc(S(=O)(=O)Nc3onc(C)c3C)cc2)c1C`, the z-score came to 0.102.

On to `CC(C)(C)NC(=O)C1Cc2ccccc2CN1C(=O)Nc1ccccc1Cl` (centres undefined), for which the z-score is -0.221.

In the case of `Cc1cc(=O)oc(C)c1C(=O)N1CCN(Cc2ccc3c(c2)OCO3)CC1`, the z-score was 0.55.

`N#CCc1c(C#N)c(N)nc(N2CCN(S(=O)(=O)c3ccccc3)CC2)c1C#N` came in with a z-score of -0.145.

Turning to `Cc1cccc(NC(=O)CCC(=O)OCC(=O)c2ccc(Oc3ccc([N+](=O)[O-])cc3)cc2)c1`, the z-score is -0.263.

`C1=C(c2ccccc2)N2CCN=C2S1` displayed a z-score of 0.0464.

Molecule `CC(=O)CSc1nnc(Cc2ccc3c(c2)OCO3)o1` gave a z-score of 0.172.

Turning to `O=C(COC(=O)C1CCCCC1)Nc1ccc(N2CCCCC2)cc1`, the z-score is -0.4.

The molecule `COc1cc(-c2nnc(COC(=O)c3cc(C)nc4ccc(C)cc34)o2)cc(OC)c1OC` gave a z-score of -0.548.

Consider `CC(/C=N\NC(=O)c1cc(C)oc1C)=C\c1ccccc1`, for which the z-score is -0.0428.

`CC1Cc2cc(/C(O)=C3/C(=O)C(=O)N(Cc4ccco4)C3c3cccs3)ccc2O1` (centres undefined) yielded a z-score of -0.913.

`O=C(O)c1ccccc1OCCOCCOc1ccccc1C(=O)O` came in with a z-score of 0.114.

`Cc1ccc(C(C)NC(=O)/C(C#N)=C\c2c(C)[nH]c3ccccc23)cc1` (centres undefined): the z-score was -0.139.

The molecule `Cc1cc2c(c(=O)n1C)C(Cc1ccccc1)C(C#N)=C(N)O2` (centres undefined) registered a z-score of -0.0341.

In turn, `CCOP(=O)(OCC)C(NC(=O)Nc1ccccc1)c1ccccc1` (centres undefined) gave a z-score of 0.0239.

`Cc1cc(/C=C(/C#N)c2cccc(F)c2)c(C)n1-c1cccnc1` came in with a z-score of 0.326.

In the case of `Cc1nn(-c2ccccc2)c(Cl)c1C1C(C#N)=C(N)Oc2c1c(C)nn2-c1ccccc1` (centres undefined), the z-score is -0.407.

As to `CCCC(=O)N1CCN(c2ccc(NC(=O)c3ccc(Br)o3)cc2)CC1`, the z-score is -0.188.
